Experimental data reported in PubChem BioAssay AID588342 (National Center for Advancing Translational Sciences (NCATS), 2011).
Out of some 360,000 compounds screened, about 25,000 (6.9%) were called active. Inconclusive results, whose numbers are uncertain, are shown with a selection of clear calls. The call rests on the fitted dose curve; in most records, active means well fitted inhibition curve with a large enough effect; inconclusive means small, poorly fitted or top-dose-only effect; inactive means flat fitted curve, though single readings scatter. Potencies of inconclusive entries are doubtful fits and often do not repeat.

biological target: Luciferin 4-monooxygenase (Photinus pyralis) (UniProt P08659); assay: qHTS profiling assay for firefly luciferase inhibitor/activator using purifed enzyme and Km concentrations of substrates (counterscreen for miR-21 project); settings: purified FLuc, luminescence inhibition; series mostly up to 57.5 µM; activity change, negative = inhibition: at the top concentration; further: nearly all actives have a fitted effect of over 55% in size;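 on activity change, negative = inhibition: plate controls were vehicle for no effect and reference inhibitor for full effect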
In short: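 Purified P. pyralis luciferase (10nM final) with 10uM D-luciferin and 10uM ATP (Km levels) in 50mM Tris acetate pH 7.5, 10mM Mg acetate, 0.01% Tween-20, 0.05% BSA; qHTS 6-point titration, ~60 µM downward; luminescence read.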
Potency means the concentration at half of the fitted maximal effect; tags describe the fitted curve by direction and shape.

Chain of UniProt P08659 (P08659 whole entry, looked up): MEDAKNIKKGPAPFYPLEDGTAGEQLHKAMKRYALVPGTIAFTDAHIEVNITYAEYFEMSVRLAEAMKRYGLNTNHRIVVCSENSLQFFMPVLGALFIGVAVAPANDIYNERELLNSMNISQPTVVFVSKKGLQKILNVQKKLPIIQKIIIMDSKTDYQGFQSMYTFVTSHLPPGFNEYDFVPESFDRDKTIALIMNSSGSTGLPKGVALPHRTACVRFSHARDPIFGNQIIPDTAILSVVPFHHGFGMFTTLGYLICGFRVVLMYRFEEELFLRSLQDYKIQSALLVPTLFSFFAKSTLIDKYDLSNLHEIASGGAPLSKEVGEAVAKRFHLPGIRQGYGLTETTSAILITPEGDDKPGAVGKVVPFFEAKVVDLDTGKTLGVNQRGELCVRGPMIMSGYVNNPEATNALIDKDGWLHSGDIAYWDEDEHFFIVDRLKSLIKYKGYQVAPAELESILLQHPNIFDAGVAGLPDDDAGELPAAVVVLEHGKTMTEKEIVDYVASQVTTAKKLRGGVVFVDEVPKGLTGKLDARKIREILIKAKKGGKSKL

| Structure (SMILES) | activity change, negative = inhibition | Potency |
| --- | --- | --- |
| COC(=O)c1ccccc1NC(=O)c1cc(CN2CCCC2)on1 | inactive: 8.04% |  |
| CN1CCN(S(=O)(=O)c2cccc(C(=O)Oc3ccc(C(C)(C)C)cc3)c2)CC1 |  | inconclusive: 19 µM [inhibitor, single point] |
| Cc1ccc(F)cc1CNC(=O)c1cc(COc2ccc3ncccc3c2)on1 |  | inconclusive: 30.1 µM [inhibitor, partial curve, poor fit] |
| CCOc1ccc(-c2nnc(SCC(=O)Nc3ccc(C)cc3Cl)o2)cc1 |  | inconclusive: 26.9 µM [inhibitor, single point] |
| CC(/C=C1\SC(=S)N(NS(=O)(=O)c2ccc(C)cc2)C1=O)=C\c1ccccc1 |  | inconclusive: 26.9 µM [inhibitor, single point] |
| O=C(Nc1ccc(Cl)cn1)c1cc2ccccc2o1 |  | active: 1.9 µM |
| O=C1c2ccccc2NC(c2ccc(-c3cccc([N+](=O)[O-])c3)o2)N1O (configuration not stated) |  | inconclusive: 30.1 µM [inhibitor, partial curve, poor fit] |
| COc1ccc(-c2nnc(SCC(=O)NCc3ccco3)o2)cc1 |  | inconclusive: 16.9 µM [inhibitor, partial curve, poor fit] |
| CCn1nc(-c2ccccc2)c(-c2ccccc2)c(C(=O)Nc2nc(C)c(C(C)=O)s2)c1=O |  | inconclusive: 7.57 µM [inhibitor, partial curve] |
| CCC(=O)N1CCc2cc(CNC(=O)c3ccc(OC)cc3)ccc21 | inactive: -12.9% |  |
| Cc1nc(/N=C(\N)Nc2ccccc2)nc2ccccc12 |  | active: 12 µM |
| Cc1ccc(N2C(=O)c3ccccc3C2=O)cc1C |  | inconclusive: 13.5 µM [inhibitor, partial curve] |
| N#CC1=C(Nc2ccc(Br)cc2)CCC1 | inactive: -22.3% |  |
| COc1ccc(/C=C/C(=O)c2ccccc2O)cc1 |  | active: 0.269 µM |
| Cc1c(-c2ccccc2)nc2ccccc2c1C(=O)Nc1ccncc1 | inactive: 1.93% |  |
| COc1ccc(NC(=O)Nc2nnc(-c3ccncc3)s2)cc1 |  | inconclusive: 37.9 µM [inhibitor, single point] |
| CCC1(c2ccc(Cl)cc2)NC(=O)N(CC(=O)NC2CCCC(C)C2C)C1=O (configuration not stated) | inactive: 7.3% |  |
| COc1cccc(CNC(=O)COC(=O)C2CCN(c3ccc(C(F)(F)F)cn3)CC2)c1 | inactive: 5.59% |  |
| O=C(NCCNC(=O)c1ccc(-c2ccc(Cl)c(Cl)c2)o1)c1cnccn1 |  | active: 15.1 µM |
| Cc1ccc(O)c(C(=O)CC(=O)c2ccc(Cl)cc2)c1 |  | active: 23.9 µM |
| COc1c(Br)cc2c(C)c(C(=O)O)oc2c1Br |  | inconclusive: 26.9 µM [inhibitor, single point] |
| O=C(Oc1ccc2ccccc2c1Cl)N1CCCCCC1 |  | active: 1.07 µM |
| CCCCCCC(=O)NNC(=O)c1c(O)c2ccccc2n(CCC)c1=O |  | inconclusive: 12 µM [inhibitor, partial curve, poor fit] |
| CCc1nnc(SCC(=O)Nc2cc(OC)ccc2OC)nc1CC | inactive: 0.467% |  |

| Structure (SMILES) | activity change, negative = inhibition | Potency |
| --- | --- | --- |
| O=C(Nc1ccccn1)c1ccc(C(=O)Nc2ccccn2)cc1 |  | inconclusive: 10.7 µM [inhibitor, partial curve, poor fit] |
| Cc1cccc(Cn2c(COc3ccc(Cl)cc3)nc3ccccc32)c1 |  | inconclusive: 16.9 µM [inhibitor, partial curve] |
| Cc1ccc(C(=O)NCCc2ccc(S(N)(=O)=O)cc2)cc1-n1cnc2cccnc21 | inactive: 0.194% |  |
| Cc1cccc(C(=O)n2nc(-c3cccnc3)nc2NCc2ccccc2)c1 | inactive: -7.6% |  |
| C/C=C/C(=O)Nc1nnc(-c2ccccc2C)s1 |  | inconclusive: 8.49 µM [inhibitor, partial curve, poor fit] |
| CC(=O)Nc1ccc(/C=N/NC(=O)c2cccs2)cc1 |  | active: 12 µM |
| N#CC1=C(S)N=C(N)C(c2nc(-c3ccccc3)cs2)C12CCCC2 (configuration not stated) |  | inconclusive: 21.3 µM [inhibitor, partial curve, poor fit] |
| C=CCn1c(-c2ccc(OC)cc2)nc2nc3ccccc3nc21 |  | inconclusive: 15.1 µM [inhibitor, partial curve] |
| COc1ccc(-c2nnc(SCC(=O)N(C)C3CCCCC3)o2)cc1OC |  | inconclusive: 33.8 µM [inhibitor, partial curve, poor fit] |
| COc1ccc(CC(=O)Nc2cccc(/C(C)=N/NC(=O)c3cccc([N+](=O)[O-])c3)c2)cc1 |  | inconclusive: 23.9 µM [inhibitor, single point] |
| Cc1ccc(C)c(C(=O)OCC(=O)N(C)c2ccccc2)c1 | inactive: -2.47% |  |
| COc1ccc(C(=O)NCc2nnc(SCC(=O)Nc3cccc(OC)c3)o2)cc1 |  | inconclusive: 26.9 µM [inhibitor, single point] |
| Clc1cc(Br)ccc1NCc1cccnc1 |  | inconclusive: 26.9 µM [inhibitor, partial curve, poor fit] |
| Cc1ccc(C(=O)Nc2cccnc2)cc1Cl |  | inconclusive: 21.3 µM [inhibitor, single point] |
| COc1cccc(CN2CCN(C(=O)c3cc(-c4ccccn4)nc4ccc(Cl)cc34)CC2)c1 |  | inconclusive: 37.9 µM [inhibitor, single point] |
| O=C(CC(=O)c1ccccc1)Nc1cc([N+](=O)[O-])ccc1Cl |  | inconclusive: 8.49 µM [inhibitor, partial curve] |
| COc1cccc(C(=O)Nc2nc(-c3ccc4c(c3)OCO4)cs2)c1 |  | active: 16.9 µM |
| CC(=O)c1ccc(-n2c(-c3cc(-c4ccsc4)n[nH]3)n[nH]c2=S)cc1 |  | inconclusive: 23.9 µM [inhibitor, partial curve, poor fit] |
| CC(=O)c1cccc(NS(=O)(=O)c2cc(-c3cnc(C4CC4)o3)ccc2C)c1 |  | inconclusive: 23.9 µM [inhibitor, partial curve] |
| Cc1ccc(CSCCC(=O)NCc2ccc(F)cc2Cl)cc1 |  | inconclusive: 26.9 µM [inhibitor, partial curve, poor fit] |
| Cc1cc(/C=C2\SC(=S)N(C)C2=O)c(C)n1-c1ccc(O)cc1 |  | active: 0.536 µM |
| CC(=O)N1c2ccc(S(=O)(=O)N(C)CC(=O)NCc3ccc(C)cc3)cc2CC1C (configuration not stated) | inactive: 1.71% |  |
| Cc1cc(O)c(C(=O)/C=C/c2ccc(Cl)cc2)c(=O)o1 |  | active: 2.13 µM |
| O=C(NCc1ccc2c(c1)OCO2)c1ccc(Br)s1 |  | inconclusive: 16.9 µM [inhibitor, partial curve] |

| Structure (SMILES) | activity change, negative = inhibition | Potency |
| --- | --- | --- |
| FC(F)(F)c1cccc(-c2nn[nH]n2)c1 |  | inconclusive: 37.9 µM [inhibitor, partial curve, poor fit] |
| CCOc1ccc(/C=N/NC(=O)c2ccc(Cn3cc([N+](=O)[O-])cn3)o2)cc1 |  | active: 4.78 µM |
| Cc1ccc(S(=O)(=O)CCC(=O)Nc2ccccc2C)cc1 | inactive: -0.781% |  |
| Cc1cccc(NC(=O)NCc2ccc3c(c2)cc(C)n3C)c1 | inactive: -3.11% |  |
| O=C(NCCc1c[nH]c2ccccc12)OCCSS(=O)(=O)O |  | inconclusive: 26.9 µM [inhibitor, partial curve, poor fit] |
| COCCCn1c(-c2ccc(OC)cc2)nc2nc3ccccc3nc21 |  | inconclusive: 37.9 µM [inhibitor, partial curve, poor fit] |
| CCOc1ccc(S(=O)(=O)Nc2cc3c(C(=O)OC)c(COC)oc3c3ccccc23)cc1 |  | inconclusive: 12 µM [inhibitor, partial curve, poor fit] |
| Cc1ccc(NC(=O)CO/N=C/c2ccc(N(C)C)cc2)cc1 |  | active: 15.1 µM |
| COc1ccc2c3c(cccc13)N(C)N=C2C | inactive: 4.03% |  |
| CCOC(=O)[C@@H]1[C@H]2COc3cc(OC)ccc3[C@H]2N2C(=O)N(c3ccc(C)cc3)C(=O)[C@@]12C | inactive: 4% |  |
| Cc1cccc(N=Nc2c(C)[nH]n(-c3ccccc3)c2=O)c1 |  | active: 19 µM |
| O=C(NC1=NCCCCC1)c1cccc2ccccc12 |  | inconclusive: 37.9 µM [inhibitor, partial curve, poor fit] |
| CC(=O)c1ccccc1NC(=O)COC(=O)c1c(C)nn(-c2ccccc2)c1C |  | inconclusive: 23.9 µM [inhibitor, partial curve] |
| CCOC(=O)c1cc(-c2ccc(F)cc2)n(CCC(=O)Nc2nc3ccc(OC)cc3s2)c1C | inactive: -2.35% |  |
| CC(C)c1cccc(-c2ccc3c(c2)S(=O)(=O)c2cccc(C(=O)O)c2C3=O)c1 |  | inconclusive: 33.8 µM [inhibitor, single point] |
| Cc1ccc(C(=O)Nc2cccc([N+](=O)[O-])c2)cc1S(=O)(=O)Nc1ccc(C(=O)O)cc1 |  | inconclusive: 16.9 µM [inhibitor, partial curve] |
| O=C(OCC(=O)N1CCCCCC1)c1ccccc1Br |  | active: 5.36 µM |
| O=C(Cn1c(-c2ccccc2)noc1=O)Nc1ccc(N2CCCCCC2)cc1 |  | inconclusive: 30.1 µM [inhibitor, partial curve, poor fit] |
| CCN(CC)S(=O)(=O)c1cc(C(=O)NC2=NCCS2)ccc1Cl |  | inconclusive: 21.3 µM [inhibitor, single point] |
| CCCC(=O)NC(=S)Nc1ccc(N2CCOCC2)c(Cl)c1 |  | inconclusive: 37.9 µM [inhibitor, single point] |
| Cc1cnc(C(=O)Oc2ccc(-c3ccccc3)cc2)cn1 |  | inconclusive: 9.53 µM [inhibitor, partial curve] |
| COc1ccc(/C=C/C(=O)c2oc3ccc(F)cc3c2C)cc1 |  | active: 9.53 µM |
| O=C(Nc1ccc2c(c1)OC1(CCCC1)O2)C1CC1 |  | inconclusive: 19 µM [inhibitor, partial curve] |
| O=C(Cn1cc(C(F)(F)F)cc(Cl)c1=O)NCc1ccc(F)cc1 |  | inconclusive: 26.9 µM [inhibitor, partial curve, poor fit] |
